The data set deals with the molecule itself. Description: native MS; protein 5-10 uM in 0.20-0.75 M ammonium acetate pH 7.0, electrosprayed, source temperature 20 °C; self-association (monomer to dimer).

One may read the stoichiometry N as a count of units in the complex or per binding partner.

B1: SGTA FLΔQ ([…]) (domain or fragment)
chain: not shown
notes: SGTA, human, […] (lacks the Q-rich region); also called construct lacking the Q-rich region; not shown: thioredoxin A, N-terminal, cleaved; His6, N-terminal, cleaved
In the case of B1, the “stoichiometry N” value turned out to be 2.

The record behind these values is PMC6042327 (BMC Biology, 2018).
